In all, about 310,000 compounds went through this assay and about 2,200 (0.71%) showed an effect of 50% or more. Effects have a minus sign here. The list shows a part of the results.

human ether-à-go-go-related gene (hERG) potassium channel, sequence (Q12809 whole entry, looked up): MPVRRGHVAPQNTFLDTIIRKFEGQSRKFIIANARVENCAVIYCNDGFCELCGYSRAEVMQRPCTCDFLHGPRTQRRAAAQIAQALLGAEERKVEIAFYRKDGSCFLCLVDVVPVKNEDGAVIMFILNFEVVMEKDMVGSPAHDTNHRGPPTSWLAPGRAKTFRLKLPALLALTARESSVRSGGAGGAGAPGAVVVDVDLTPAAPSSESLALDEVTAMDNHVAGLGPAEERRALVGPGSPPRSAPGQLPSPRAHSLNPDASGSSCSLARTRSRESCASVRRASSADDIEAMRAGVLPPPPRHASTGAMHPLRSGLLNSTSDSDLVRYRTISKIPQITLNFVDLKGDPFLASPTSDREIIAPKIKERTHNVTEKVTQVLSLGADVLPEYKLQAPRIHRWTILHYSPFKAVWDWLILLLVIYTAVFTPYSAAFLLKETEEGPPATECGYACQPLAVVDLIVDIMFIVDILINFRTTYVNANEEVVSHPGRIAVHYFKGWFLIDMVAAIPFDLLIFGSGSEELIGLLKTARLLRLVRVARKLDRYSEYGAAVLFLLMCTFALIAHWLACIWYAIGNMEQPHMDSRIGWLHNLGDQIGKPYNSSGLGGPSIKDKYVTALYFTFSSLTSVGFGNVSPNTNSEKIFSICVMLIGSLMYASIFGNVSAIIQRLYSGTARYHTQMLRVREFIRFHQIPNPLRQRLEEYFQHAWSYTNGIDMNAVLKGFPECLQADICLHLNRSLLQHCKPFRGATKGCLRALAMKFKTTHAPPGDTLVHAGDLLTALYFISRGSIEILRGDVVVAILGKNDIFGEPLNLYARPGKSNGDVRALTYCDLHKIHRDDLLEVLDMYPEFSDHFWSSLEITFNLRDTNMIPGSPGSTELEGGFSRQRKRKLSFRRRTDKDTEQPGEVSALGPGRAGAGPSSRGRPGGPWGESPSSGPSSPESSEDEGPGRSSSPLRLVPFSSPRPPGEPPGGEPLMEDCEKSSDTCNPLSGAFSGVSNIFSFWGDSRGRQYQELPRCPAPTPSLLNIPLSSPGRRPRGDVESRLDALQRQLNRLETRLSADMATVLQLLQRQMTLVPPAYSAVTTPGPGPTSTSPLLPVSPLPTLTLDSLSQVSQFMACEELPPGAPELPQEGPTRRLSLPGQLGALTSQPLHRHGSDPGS

The test concerns the target human ether-à-go-go-related gene (hERG) potassium channel (human, UniProt Q12809). Description: primary screen, population patch clamp on CHO cells stably expressing hERG.
Take `CCOC(=O)c1cc(S(=O)(=O)N2CCC(C)CC2)cn1C`: the “hERG current change (%, negative = inhibition) at 1uM” value is recorded as 17.6%. Consider `CCc1cc(=O)oc2cc(C)cc(OC(C)C(=O)NCc3cccnc3)c12` (stereo not drawn), for which the “hERG current change (%, negative = inhibition) at 1uM” value came out at 5.71%. Consider `Cc1ccc(NC(=O)CN2C(=O)NC(Cc3ccccc3)C2=O)c(Br)c1` (stereo not drawn), for which the “hERG current change (%, negative = inhibition) at 1uM” value amounted to 1.21%. As for `CCCOc1ccc(-c2c(C(=O)N/N=C(\C)COc3ccccc3)nnn2-c2nonc2N)cc1`, the “hERG current change (%, negative = inhibition) at 1uM” value is listed as 18.4%.

As to `Cn1cc(CN(CCO)Cc2cccs2)c(-c2cccc(Cl)c2)n1`, the “hERG current change (%, negative = inhibition) at 1uM” value came to 4.15%. Turning to `C=CCNC(=O)Cc1ccc(S(=O)(=O)N2CCOCC2)s1`, the “hERG current change (%, negative = inhibition) at 1uM” value is 12.1%. As for `CN(CC(=O)Nc1ccc(F)cc1)C(=O)CSc1nccn1C`, the figure is -0.256%; as for `Cc1ccc(OCC(COCc2ccccc2)NC(C)C)cc1.O=C(O)C(=O)O` (stereo not drawn), 10.1%.

As for `O=C(N/N=C/c1c[nH]c2ccccc12)c1ccc(O)c(O)c1`, the “hERG current change (%, negative = inhibition) at 1uM” value is given as 9.27%. As for `C#C[C@]1(O)CCC2C3CCC4=CC(=O)CC[C@@H]4C3CC[C@@]21C` (stereo partly drawn), the figure is 5.92%. The same measure for `COCCn1c(=O)[nH]c2cc(C(=O)Nc3cccc(F)c3)ccc2c1=O`: -1.16%.

As for `Cc1cccc(C)c1OCC(=O)NCc1nnc(SCC(=O)NC2CCCCC2)n1C`, the “hERG current change (%, negative = inhibition) at 1uM” value came out at 14.2%. The same measure for `C=CCOc1ccccc1CNCc1ccc(F)cc1.Cl`: -1.43%.

For `Cn1c(=O)[nH]c(=O)c2c1nc(N1CCN(c3ccccc3)CC1)n2CCSc1ncccn1`, the “hERG current change (%, negative = inhibition) at 1uM” value is on record as -6.57%. Take `CC(CCc1ccccc1)N1CCN(Cc2ccccc2)CC1` (stereo not drawn): the “hERG current change (%, negative = inhibition) at 1uM” value is recorded as -49.3%. The same measure for `CCOP(=O)(c1ccccc1)C(O)c1ccc(Br)cc1` (stereo not drawn): -15.5%. Regarding `O=C(NN1C(=O)C2C(C1=O)C1C=CC2C12CC2)c1ccncc1` (stereo not drawn), the “hERG current change (%, negative = inhibition) at 1uM” value was determined as 9.22%. As for `CC(C)CN1C(=O)N(c2ccc(Cl)cc2)C(C)(O)CC1(C)C` (stereo not drawn), the “hERG current change (%, negative = inhibition) at 1uM” value is 21.6%. For the compound `Cc1ccc(C2NC(=O)c3sc(=S)n(-c4ccccc4)c3N2)cc1` (stereo not drawn), the “hERG current change (%, negative = inhibition) at 1uM” value worked out at 32.7%. The same measure for `COc1ccc(OCC(=O)NCCNC(=O)c2ccncc2)cc1`: 1.05%; for `CC(C)(C)NC(=O)CN(C(=O)c1ccc(CN2CCOCC2)o1)c1ccc2c(c1)OCCO2`: 10.1%; for `O=C(NCc1cccnc1)[C@@H]1CC=C[C@@H]2CCN(Cc3ccccc3)C(=O)[C@@H]21`: 12.3%. The same measure for `CC(C)C(C)NC(=O)COc1ccc(S(=O)(=O)N2CCOCC2)cc1[N+](=O)[O-]` (stereo not drawn): 16%; for `Cc1nc2ccccc2c(=O)n1Cc1ccco1`: 10.7%; for `NC(=O)CC(NSc1ccccc1[N+](=O)[O-])C(=O)O` (stereo not drawn): -5.77%. As for `CCCCn1c(=O)c(C(=O)NCc2ccc(Cl)cc2)c(O)c2ccccc21`, the figure is 18.9%; as for `CCn1c(COc2ccc(OC)cc2)nnc1SCC(=O)Nc1cc(OC)ccc1OC`, 4.05%; as for `COC(=O)c1cc(CNC(=O)c2ccc(O)c(Cl)c2)ccc1OC`, 6.89%. Take `O=C(NCc1ccccn1)c1nc(Cn2ccc([N+](=O)[O-])n2)no1`: the “hERG current change (%, negative = inhibition) at 1uM” value is given as 11.2%.

On to `CC(C)n1cc(CN2CCC(n3nccc3NC(=O)CCCc3ccccc3)CC2)cn1`, for which the “hERG current change (%, negative = inhibition) at 1uM” value was -0.529%. The same measure for `CCOC(=O)C1CCN(C(=O)/C(=C/c2ccccc2)NC(=O)c2ccccc2)CC1`: -3.18%; for `CCc1ccc2[nH]c(=O)c(C(c3nnnn3CC3CCCO3)N3CCCc4ccccc43)cc2c1` (stereo not drawn): 19.9%; for `Cc1cc(OCC(=O)Nc2ccc(N3CCN(C)CC3)cc2)ccc1Cl`: 2.28%.

Turning to `Cl.O=C(NCCCn1ccnc1)c1ccc(Br)cc1`, the “hERG current change (%, negative = inhibition) at 1uM” value came to 0.254%. As for `NC(=O)N/N=C/c1ccc(N2CCOCC2)s1`, the figure is -1.89%; as for `COc1ccc(C(=O)c2c3ccc(OC)cc3[n+]([O-])n2CCCC(N)=O)cc1`, 5.88%. Turning to `CCOCCCNC(=O)c1ccc2c(=O)n(Cc3ccc(OC)cc3)c(=O)[nH]c2c1`, the “hERG current change (%, negative = inhibition) at 1uM” value came to 23.2%. Take `CCOc1ccc(NC(=O)C2CCCN(S(=O)(=O)c3c(C)noc3C)C2)cc1` (stereo not drawn): the “hERG current change (%, negative = inhibition) at 1uM” value worked out at 12.2%.

On to `O=C(CN(Cc1cccs1)C(=O)CCC(=O)Nc1ccccn1)NCc1ccccc1`, for which the “hERG current change (%, negative = inhibition) at 1uM” value was 7.02%.

Turning to `Cc1cc(C(=O)O)ccc1NCc1ccncc1`, the “hERG current change (%, negative = inhibition) at 1uM” value came to 15.2%.

In the case of `O=C(Cn1cnc2c(nnn2Cc2ccc(Cl)cc2)c1=O)NCc1ccco1`, the “hERG current change (%, negative = inhibition) at 1uM” value was 13.5%. As for `CC(=O)NCC(=O)N(C)C(C(=O)Nc1ccc2c(c1)OCCO2)c1ccc(C)cc1` (stereo not drawn), the figure is 8.77%; as for `CN(C)c1cccc2c1c(NC(=O)Nc1ccc(Cl)cc1Cl)nn2C`, 3.13%. On to `O=C(CSc1nnc(COc2ccc(F)cc2)o1)N1CCCCC1`, for which the “hERG current change (%, negative = inhibition) at 1uM” value is 16.1%.

For `CCCCc1ccc(NC(=O)OC)cc1`, the “hERG current change (%, negative = inhibition) at 1uM” value turned out to be 4.71%. The same measure for `CC(=O)Nc1cccc(NC(=O)CN2c3cccc4cccc(c34)S2(=O)=O)c1`: 4.14%. The same measure for `COc1ccc2c(c1)CCCN2C(N)=Nc1ccc(Cl)cc1`: -9.55%; for `CSCCC(NC(=O)c1ccc(Cl)cc1Cl)C(=O)NNC(=O)c1csc(N2CCOCC2)n1` (stereo not drawn): -9.64%. Turning to `CC1CCCCN1CCCn1c(=S)[nH]c2ccccc2c1=O` (stereo not drawn), the “hERG current change (%, negative = inhibition) at 1uM” value is reported as -9.91%.

With `CN(C)CCCNc1c2ccccc2nc2ccccc12`, the “hERG current change (%, negative = inhibition) at 1uM” value is on record as 3.34%. As for `Nc1nnc(SCc2ccc(F)cc2)n1-c1ccccc1`, the figure is 5.65%; as for `FC(F)(F)c1cccc(CNc2ncccc2-c2nc3cc(Cl)ccc3o2)c1`, 9.75%. `CC1CCC(NC(=O)CNC(=O)c2cccs2)CC1` (stereo not drawn): the “hERG current change (%, negative = inhibition) at 1uM” value was 5.84%. As for `Cc1cc(C)n(CCCNC(=O)C2CC(=O)N(Cc3ccccc3)C2)n1` (stereo not drawn), the figure is 10.6%; as for `COc1cc(C(=O)NCc2ncccc2C)ccc1OC1CCN(C(C)=O)CC1`, 8.75%; as for `COc1ccc(OCCSc2nnc3sc4ccccc4n23)cc1`, 5.24%.

With `COCCN1C(=O)C(=O)/C(=C(/O)c2cccc(OC)c2)C1c1ccncc1` (stereo not drawn), the “hERG current change (%, negative = inhibition) at 1uM” value stood at 19.8%. `Cc1ccc(SCC(=O)NN2C(=O)c3ccccc3C2=O)cc1`: the “hERG current change (%, negative = inhibition) at 1uM” value is 3.38%. For `CCOc1c(Cl)cc(C2NC(=O)NC(C)=C2C(=O)NCc2ccccc2)cc1OC` (stereo not drawn), the “hERG current change (%, negative = inhibition) at 1uM” value is reported as -6.99%.

As for `CSc1ccccc1NC(=O)c1cnc2sc(C)cn2c1=O`, the “hERG current change (%, negative = inhibition) at 1uM” value is recorded as 2.93%. As to `O=C(CCNS(=O)(=O)c1cccs1)N1CCCCCC1`, the “hERG current change (%, negative = inhibition) at 1uM” value worked out at 13.9%.

For `COCn1c(-c2ccc(OC)c(OC)c2)nc2ccccc21`, the “hERG current change (%, negative = inhibition) at 1uM” value is 4.61%. In the case of `CCCn1c(SCC(=O)c2cc(OC)ccc2OC)nnc1-c1ccco1`, the “hERG current change (%, negative = inhibition) at 1uM” value was 3.46%. The same measure for `CCc1nc2ccccc2c2nc3ccccc3n12`: 12.7%; for `CCc1ccccc1OCCCCN1CCCC1.O=C(O)C(=O)O`: -2.73%; for `O=C(/C=C\c1ccc2c(c1)OCO2)CC1(O)C(=O)Nc2ccccc21` (stereo not drawn): 2.9%. With `O=C(CN1C(=O)S/C(=C\C=C\c2ccccc2)C1=O)Nc1ccccc1C(=O)O`, the “hERG current change (%, negative = inhibition) at 1uM” value was found to be 6.86%. For `Cl.OC(CN1CCCCCC1)CN(c1ccccc1)c1ccccc1` (stereo not drawn), the “hERG current change (%, negative = inhibition) at 1uM” value is reported as -24.1%. Consider `CCOC(=O)Cc1cc(=O)n2[nH]c(-c3ccccc3)cc2n1`, for which the “hERG current change (%, negative = inhibition) at 1uM” value worked out at 2.92%. As for `CCOc1ccc(C(=O)COC(=O)C2COc3ccccc3O2)cc1` (stereo not drawn), the figure is 5.82%. The same measure for `N#CCCN(C(=O)COC(=O)CCNS(=O)(=O)c1ccccc1)c1ccccc1`: 9.81%; for `C=CCN1C(=O)NC(=O)C(CCc2ccncc2)(CCc2ccncc2)C1=O`: -12.3%. As to `CCc1nc2ccccc2n1CCC(C)C`, the “hERG current change (%, negative = inhibition) at 1uM” value was found to be 5.08%. As for `COCC(=O)NCc1nc2ccccc2[nH]1`, the figure is 0.105%; as for `Cc1cc(NC(=O)C(C)SCC(=O)N(C)CC(=O)Nc2ccc(Br)cc2C)no1` (stereo not drawn), 10.5%. The same measure for `CC(C)c1cc(C(C)C)n2nc(N)nc2n1`: 2.59%; for `COc1ccc(-n2ncc(N(C)n3cccc3)c(Cl)c2=O)cc1`: 9.05%; for `O=C(NCc1ccncc1)C(=O)NCC(c1ccco1)N1CCN(c2ccccc2)CC1` (stereo not drawn): 3.03%. Turning to `COc1ccccc1N1CC(C)(C)C(=O)N(C(=O)c2c(F)cccc2Cl)C1=S`, the “hERG current change (%, negative = inhibition) at 1uM” value came to 27.1%. As to `CCCCNC(=O)C(C#N)c1nc2ccccc2nc1N1CCN(c2ccccc2F)CC1` (stereo not drawn), the “hERG current change (%, negative = inhibition) at 1uM” value came out at 8.32%. The same measure for `CC(Sc1nnc(-c2ccco2)n1C)C(=O)N1C(C)CCCC1C` (stereo not drawn): 9.38%; for `Cn1ncc2c(Sc3ccc(Cl)cc3)ncnc21`: 13.6%.

For `COc1ccc(NS(=O)(=O)c2csc(C(=O)N3CCCC3)c2)cc1`, the “hERG current change (%, negative = inhibition) at 1uM” value was 6.63%. The same measure for `Cl.Fc1ccc(-c2csc(Nc3ccccn3)n2)c(F)c1`: 21.6%; for `O=C(OCC(=O)N1CCc2ccccc21)[C@@H]1CCCN1S(=O)(=O)c1ccccc1F`: -0.207%.

Consider `CC(C)CCNC(=O)CN(Cc1ccccc1)C(=O)CCC(=O)Nc1nccs1`, for which the “hERG current change (%, negative = inhibition) at 1uM” value was 4.61%. As for `Cc1ccc(NC(=O)COC(=O)c2ccccc2-c2nc3ccccc3s2)c(C)c1`, the figure is 18.9%; as for `Clc1ccc(SCc2cc(-c3ccc(Cl)cc3)on2)cc1`, 6.59%; as for `Cc1c(C(=O)OCC(=O)N2CCCC(C)C2)oc2ccccc12` (stereo not drawn), 13.8%. In the case of `CC1CCN(c2ccccc2NC(=S)NC(=O)C(C)(C)C)CC1`, the “hERG current change (%, negative = inhibition) at 1uM” value was determined as 12.3%.
